{"source": "paper PMC4336329", "about": "(PLoS ONE, 2015)", "note": "The campaign covered roughly 310,000 compounds. About 2,200 (0.71%) showed an effect of 50% or more. The effect is printed as a negative number. Some of the results follow.", "data": [{"target": "human ether-à-go-go-related gene (hERG) potassium channel (human, UniProt Q12809)", "sequence (Q12809 whole entry, looked up)": "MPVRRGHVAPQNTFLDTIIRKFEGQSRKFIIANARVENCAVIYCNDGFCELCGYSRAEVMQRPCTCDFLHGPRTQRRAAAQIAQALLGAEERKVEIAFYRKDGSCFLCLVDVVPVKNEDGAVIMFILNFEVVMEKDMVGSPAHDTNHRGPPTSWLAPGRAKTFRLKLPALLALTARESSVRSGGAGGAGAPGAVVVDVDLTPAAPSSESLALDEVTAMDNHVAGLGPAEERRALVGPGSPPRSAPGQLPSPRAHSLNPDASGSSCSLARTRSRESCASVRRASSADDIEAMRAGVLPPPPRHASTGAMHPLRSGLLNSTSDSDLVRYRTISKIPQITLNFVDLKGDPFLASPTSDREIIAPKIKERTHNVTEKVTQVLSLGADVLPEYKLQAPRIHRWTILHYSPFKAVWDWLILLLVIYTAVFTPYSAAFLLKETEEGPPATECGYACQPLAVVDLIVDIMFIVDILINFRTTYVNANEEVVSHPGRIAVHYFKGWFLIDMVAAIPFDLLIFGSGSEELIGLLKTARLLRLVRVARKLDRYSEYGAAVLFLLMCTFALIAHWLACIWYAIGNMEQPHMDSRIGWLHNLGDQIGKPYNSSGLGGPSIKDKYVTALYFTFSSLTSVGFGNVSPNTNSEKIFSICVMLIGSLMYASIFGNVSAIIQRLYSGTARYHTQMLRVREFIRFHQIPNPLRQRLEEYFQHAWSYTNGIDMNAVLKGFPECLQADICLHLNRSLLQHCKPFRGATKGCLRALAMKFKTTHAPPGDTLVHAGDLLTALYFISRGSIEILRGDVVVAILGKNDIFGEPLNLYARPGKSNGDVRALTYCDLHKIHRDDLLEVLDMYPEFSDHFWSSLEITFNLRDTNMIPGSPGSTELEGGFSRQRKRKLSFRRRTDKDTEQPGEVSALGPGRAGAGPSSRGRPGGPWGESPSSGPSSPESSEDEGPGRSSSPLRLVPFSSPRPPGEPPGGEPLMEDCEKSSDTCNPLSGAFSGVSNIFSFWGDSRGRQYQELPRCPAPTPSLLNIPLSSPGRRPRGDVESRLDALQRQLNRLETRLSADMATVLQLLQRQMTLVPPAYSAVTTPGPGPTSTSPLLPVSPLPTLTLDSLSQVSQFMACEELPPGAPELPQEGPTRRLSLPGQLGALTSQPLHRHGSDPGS", "assay": "primary screen, population patch clamp on CHO cells stably expressing hERG", "units": {"hERG current change (%, negative = inhibition) at 1uM": "%"}, "values": [{"smiles": "COc1ccc(Cl)cc1Nc1nc(-c2sc(NC(=O)CC(C)C)nc2C)cs1", "hERG current change (%, negative = inhibition) at 1uM": 11.1}, {"smiles": "Fc1ccc(CNc2nc(-c3ccco3)cc(C(F)(F)F)n2)cc1", "hERG current change (%, negative = inhibition) at 1uM": 14.4}, {"smiles": "Cn1ncc(Br)c1C(=O)NC1CCCCCC1", "hERG current change (%, negative = inhibition) at 1uM": 3.27}, {"smiles": "O=Cc1cn(Cc2cccc([N+](=O)[O-])c2)c2ccccc12", "hERG current change (%, negative = inhibition) at 1uM": -10.1}, {"smiles": "O=C(Nc1ccc2c(c1)OCO2)C1CCN(C(=O)c2ccc(Br)cc2)CC1", "hERG current change (%, negative = inhibition) at 1uM": -42.3}, {"smiles": "CC(C)(C)c1ccc(OCC(=O)N/N=C/C2CC=CCC2)cc1", "note": "(centres unmarked)", "hERG current change (%, negative = inhibition) at 1uM": 12.7}, {"smiles": "CCc1cccc(C)c1NC(=O)c1ccoc1C", "hERG current change (%, negative = inhibition) at 1uM": 11.7}, {"smiles": "Cc1cc(C(F)(F)F)nn1CC(=O)NNC(=S)NCC(C)C", "hERG current change (%, negative = inhibition) at 1uM": -0.182}, {"smiles": "COC(=O)c1cc(NC(=O)CC2NCCNC2=O)cc(C(=O)OC)c1", "note": "(centres unmarked)", "hERG current change (%, negative = inhibition) at 1uM": 9.85}, {"smiles": "O=C(CC(Cc1ccccc1)C(=O)O)Nc1ccc(Cl)c(Cl)c1", "note": "(centres unmarked)", "hERG current change (%, negative = inhibition) at 1uM": 8.97}, {"smiles": "Cc1ccc2cc3c(NC(=O)C4CCCO4)nn(CC(C)C)c3nc2c1", "note": "(centres unmarked)", "hERG current change (%, negative = inhibition) at 1uM": 14}, {"smiles": "CN(C)S(=O)(=O)N1CCC(Oc2cccc(C(=O)NC3CCCCC3)c2)CC1", "hERG current change (%, negative = inhibition) at 1uM": 2.87}, {"smiles": "O=C(NCCCNC(=O)c1cnccn1)c1cccc(Cl)c1", "hERG current change (%, negative = inhibition) at 1uM": 13.6}, {"smiles": "CC(=O)c1c(C)nn(CC(O)Cn2c3c(c4cc(C)ccc42)CCCC3=O)c1C", "note": "(centres unmarked)", "hERG current change (%, negative = inhibition) at 1uM": 13}, {"smiles": "COc1cc(-c2noc(C)c2/C=C/c2cccc([N+](=O)[O-])c2)cc(OC)c1OC", "hERG current change (%, negative = inhibition) at 1uM": 11}, {"smiles": "CC(C)OCC(O)CN1CCN(C(c2ccccc2)c2ccccc2)CC1.Cl", "note": "(centres unmarked)", "hERG current change (%, negative = inhibition) at 1uM": -4.1}, {"smiles": "CC(C)c1ccc(NC2CCCN(C(=O)c3ccsc3)C2)cc1", "note": "(centres unmarked)", "hERG current change (%, negative = inhibition) at 1uM": 10.2}, {"smiles": "COc1ccc(Cl)cc1S(=O)(=O)N1CCC(O)(c2ccc(Cl)cc2)CC1", "hERG current change (%, negative = inhibition) at 1uM": 12.1}, {"smiles": "COc1ccccc1C(CC(=O)O)NS(=O)(=O)c1ccc2c(c1)N(C(C)=O)CC(C)O2", "note": "(centres unmarked)", "hERG current change (%, negative = inhibition) at 1uM": 20}, {"smiles": "COc1ccc(C(=O)NC(=S)N2CCCCC2)cc1[N+](=O)[O-]", "hERG current change (%, negative = inhibition) at 1uM": 5.8}, {"smiles": "CCCCN(C(=O)CSc1nnc(-c2ccc(OC)cc2)n1CC)c1c(N)n(Cc2ccccc2)c(=O)[nH]c1=O", "hERG current change (%, negative = inhibition) at 1uM": 9.7}, {"smiles": "O=C(NCc1ccccc1)NCC12CC3CC(CC(C3)C1)C2", "hERG current change (%, negative = inhibition) at 1uM": 10.3}, {"smiles": "CNC(C(=O)c1ccccc1)C(OC(C)=O)c1cccc([N+](=O)[O-])c1.[O-][Cl+3]([O-])([O-])O", "note": "(centres unmarked)", "hERG current change (%, negative = inhibition) at 1uM": 13.4}, {"smiles": "COc1ccc(C(=O)NN)cc1", "hERG current change (%, negative = inhibition) at 1uM": -8.52}, {"smiles": "COc1ccc(S(=O)(=O)Nc2cccnc2)c(C)c1C", "hERG current change (%, negative = inhibition) at 1uM": 2.39}, {"smiles": "COc1ccccc1N1C(=NC(=O)CCC2CCCC2)SC2CS(=O)(=O)CC21", "note": "(centres unmarked)", "hERG current change (%, negative = inhibition) at 1uM": 20.6}, {"smiles": "NC(=O)c1ccsc1NC(=O)COC(=O)/C=C/c1ccc([N+](=O)[O-])cc1", "hERG current change (%, negative = inhibition) at 1uM": 11.1}, {"smiles": "Cc1csc(=O)n1CCC(=O)OCC(=O)Nc1cccc(C#N)c1", "hERG current change (%, negative = inhibition) at 1uM": 3.97}, {"smiles": "Cc1cc(C)cc(C(=O)N[C@@H](C)C(=O)N2CCC3(CC2)NCCc2[nH]cnc23)c1", "hERG current change (%, negative = inhibition) at 1uM": 16.9}, {"smiles": "CN1CCN(C(=O)c2ccc3c(c2)N(Cc2cccc(Cl)c2)C(=O)c2ccccc2S3=O)CC1", "note": "(centres unmarked)", "hERG current change (%, negative = inhibition) at 1uM": 1.34}, {"smiles": "CC(C)CCNC(=O)Cn1cc2c(n1)CCCCC2", "hERG current change (%, negative = inhibition) at 1uM": 11.3}, {"smiles": "CCC(C)Sc1ccc([C@H]2N[C@@](C)(C(=O)OC)[C@H]3C(=O)N(CC)C(=O)[C@@H]23)cc1.O=C(O)C(F)(F)F", "note": "(some centres unmarked)", "hERG current change (%, negative = inhibition) at 1uM": 9.09}, {"smiles": "c1ccc2c(c1)c1ccccc1n2CN1CCOCC1", "hERG current change (%, negative = inhibition) at 1uM": 10.2}, {"smiles": "O=C(NNS(=O)(=O)c1ccc(F)cc1)c1ccc2c(c1)OCO2", "hERG current change (%, negative = inhibition) at 1uM": 2.24}, {"smiles": "O=C(OCC(=O)N1CCCC1=O)c1ccc(F)c(S(=O)(=O)N2CCOCC2)c1", "hERG current change (%, negative = inhibition) at 1uM": -4.67}, {"smiles": "COc1cccc(/C=N/NC(=O)c2cccc3ccccc23)c1", "hERG current change (%, negative = inhibition) at 1uM": 9}, {"smiles": "COc1ccccc1N(C)S(=O)(=O)c1ccc(C(=O)Nc2ncc(C)s2)cc1", "hERG current change (%, negative = inhibition) at 1uM": 13.9}, {"smiles": "COc1cc(OC)c(NC(=O)[C@@H]2CCC(=O)N2C2OC(=O)c3c2ccc(OC)c3OC)cc1Cl", "note": "(some centres unmarked)", "hERG current change (%, negative = inhibition) at 1uM": -13.6}, {"smiles": "Br.C=CCn1c(=N)n(CC(=O)OCC)c2ccccc21", "hERG current change (%, negative = inhibition) at 1uM": 8.25}, {"smiles": "Cc1ccc(C(=O)N/N=C/c2c(O)ccc3ccccc23)cn1", "hERG current change (%, negative = inhibition) at 1uM": 13.3}, {"smiles": "CCCc1c(C(=O)Nc2ccc(OC)cc2)cnn1-c1ccccc1", "hERG current change (%, negative = inhibition) at 1uM": 10.8}, {"smiles": "CN(CCNC(=O)c1cc2c(-c3ccccc3F)nn(C)c2s1)C1CCCCC1", "hERG current change (%, negative = inhibition) at 1uM": 10.7}, {"smiles": "CC(C)Nc1nc(NC(C)C)nc(C(=O)OCCO)n1", "hERG current change (%, negative = inhibition) at 1uM": 16.3}, {"smiles": "Nc1ccc(S(=O)(=O)Nc2cnc3ccccc3n2)cc1", "hERG current change (%, negative = inhibition) at 1uM": 8.84}]}]}
